Measured values reported in PubChem BioAssay AID743279 (National Center for Advancing Translational Sciences (NCATS), 2014).
Screen size: about 360,000 compounds; about 17,000 (4.7%) were called active. Inconclusive means that the source gave no clear call. Such entries were picked first, then a sample of the others. No stated cut-off is given here; in the data, active means activity change below about -50%; inconclusive means mostly about -30% to -49%; inactive means weaker than that.

Experiment: qHTS for Inhibitors of Inflammasome Signaling: IL-1-beta AlphaLISA Primary Screen
Conditions: THP-1 LPS/ATP IL-1B secretion, 16 h; at 57.5 µM, active compounds read low
In short: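 THP-1 cells pretreated 1 hr with compounds (up to 57.5 uM final), then stimulated with LPS (250 ng/mL final) plus ATP (1.25 mM final); secreted IL-1B measured by AlphaLISA after 16 hr, decreased signal indicating inhibition.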
On the % scale 0 is the no-effect control and ±100 the full control effect.

Activity change, active:
N=c1oc2cc(O)ccc2cc1C(=O)Nc1ccc(Br)cc1 -89.9%
CCN(C(=O)COC(=O)/C(=C/c1ccccc1)n1nnnc1C)C1CCCCC1 -96.6%
Cc1nnsc1C(=O)Nc1ccc(S(=O)(=O)N2CCC(C)CC2)cc1 -54.5%
Cc1cccc(NC(=O)CSc2nnc(-c3cc(C)n(-c4ccccc4)c3C)o2)c1C -79.8%
CC(=O)n1cc([C@@H]2C=C(C(=O)N3CCN(Cc4ccc5c(c4)OCO5)CC3)O[C@H](OCCCCO)C2)c2ccccc21 -51.9%
COc1ccc(/C=C2\CCC(C3CCCC3)C2=O)cc1Cn1cccn1 (configuration not stated) -80.2%
O=c1cc(-c2ccccc2)c2ccc(O)cc2o1 -59.6%
Cc1onc(-c2ccccc2Cl)c1C(=O)NCc1nc(-c2ccc(C(F)(F)F)cc2)no1 -76.2%
COc1ccc(-c2ccc(C(c3c(C)[nH][nH]c3=O)c3c(C)[nH][nH]c3=O)o2)c([N+](=O)[O-])c1 -73.5%
Cc1ccccc1-c1nc(CN2CCC(C(=O)NCc3ccco3)CC2)c(C)o1 -67.1%
O=C(Nc1ccccc1)Nc1cccn(Cc2c(F)cccc2Cl)c1=O -61%
COc1cc([N+](=O)[O-])ccc1NC(=O)COC(=O)CCOc1ccc(C)cc1 -81.7%
CCOC(=O)c1sc(NC(=O)CCN2CCCCCC2)c(C(=O)OCC)c1C -99%

Activity change, inconclusive:
Cc1[nH]c2ccccc2c1CN1CCc2ccccc2C1 -38%
NS(=O)(=O)c1ccc(NC(=S)NC(=O)c2cccc(Br)c2)cc1 -37.3%
CCN(c1cccc(C(F)(F)F)c1)S(=O)(=O)c1ccc2c(c1)CCN2C(C)=O -34.6%
C/C(=N\NC(=S)NC1CCCCC1)c1ccc(OC(F)F)cc1OC(F)F -33.6%
Cc1ccc(S(=O)(=O)N2CCN(c3ccnc4cc(Cl)ccc34)CC2)cc1C -32.1%
CC(=O)c1cccc(NC(=O)CSc2nc(=O)n(Cc3ccccn3)c3c2CCC3)c1 -47.8%
O=C(N/N=C/C=C\c1ccco1)c1cccs1 -39%
CCOC(=O)c1c(NC(C)=O)sc2c(OCC(O)CN(CC)CC)c(Br)ccc12 (configuration not stated) -49.3%
COc1ccc(CC(=O)Nc2cccc(-c3ccc4nnc(C)n4n3)c2)cc1OC -44.3%
COc1ccc(N)cc1-n1c(C)ccc1C -38.5%
O=C(COc1ccc2ccccc2c1Br)NCc1ccccn1 -34.4%
Cc1cccc2sc(NC(=O)c3ccc(NS(=O)(=O)c4cccs4)cc3)nc12 -38%
Cc1ccc(-c2cc(C(=O)NCCCn3ccnc3)c3cc(Br)ccc3n2)o1 -35.3%
CCN(CC)CCCNC(=O)CNC(=O)c1nn(-c2ccc(OC)cc2)c(=O)c2ccccc12 -34.3%
O=C1c2ccncc2C(=O)N1c1cccc(Cl)c1 -31.5%
COc1ccc2c(c1)CCc1c-2nc2ccccc2c1N1CCOCC1 -43.9%
Cc1ccc(OCC(O)CNCc2ccccc2)cc1C (configuration not stated) -37.6%
CC(C)N(C(=O)[C@H]1C[C@H](CC(=O)NCCN2CCOCC2)C(=O)N2CCc3c([nH]c4cc(-c5ccco5)ccc34)[C@]12C)C(C)C -35.5%
COc1cc(OC)cc(C(=O)N(Cc2cc3cc(C)ccc3[nH]c2=O)C(C)C)c1 -35.1%
Cc1ccc(NC(=S)NNC(=O)CSc2nnc(-c3ccc(Cl)cc3)n2C2CCCCC2)cc1 -32.3%
Cc1c(C(=O)N2CCN(C)CC2)oc2ccc(Br)cc12 -34.9%
Cc1ccc(/C=N/NC(=O)c2ccc(-n3cccc3)cc2)o1 -32%
O=C(Nc1cccc2cccnc12)c1ccc2sc([C@H]3C[C@H](O)[C@@H](CO)O3)nc2c1 -43.8%
Cc1cccc(NC(=O)c2sc3nc(C)nc(N4CCOCC4)c3c2C)c1 -47%
COc1cccc(/C=C2\SC(=O)N(CCC(=O)N3CCCCC3CCO)C2=O)c1 (configuration not stated) -30.7%
CN(C(=O)c1cccc(NC(=O)C2CCCN(C(=O)OC(C)(C)C)C2)c1)C1CCC1 (configuration not stated) -34.5%
O=C(NCCCN1CCOCC1)c1cc(-c2ccc3c(c2)OCO3)nc2ccccc12 -31.3%
Cc1nc(-c2ccc(NC(=O)c3ccc(Br)o3)cc2)cs1 -40.8%
COc1cccc(-c2nnc(N)o2)c1 -40.1%
CC(=O)O[C@]1(C(C)=O)CC[C@H]2[C@@H]3C=C(C)C4=CC(=O)CC[C@@H]4[C@H]3CC[C@@]21C -41.6%
CN(c1ccccc1)S(=O)(=O)c1cc(C(=O)N2CCN(c3ccccn3)CC2)ccc1Cl -49.4%
Cc1ccnc(NC(=O)c2cc3ccccc3o2)c1 -45.8%
CCC(C)n1c(SCc2ccc([N+](=O)[O-])cc2)nc2ccsc2c1=O (configuration not stated) -33.6%
CC(=O)c1ccc(-n2c(SCC(=O)c3c[nH]c4ccccc34)nc3ccccc3c2=O)cc1 -46.5%
CCC(c1nnnn1-c1ccc2c(c1)OCCO2)N1CCN(Cc2c(F)cccc2Cl)CC1 (configuration not stated) -35.7%
COc1ccc(C(CNC(=O)c2cccc(S(=O)(=O)Nc3ccccc3OC)c2)N2CCCC2)cc1 (configuration not stated) -35.9%
NC(=O)c1ccc(N2CCNC(=O)C2)c([N+](=O)[O-])c1 -36.3%
COCC1CCCCN1C(=O)c1ccc(OC2CCN(CCc3ccccc3)CC2)cc1 (configuration not stated) -46%
C#CCOCCOCCOCCNc1nc(N2CCN(C(=O)CCCCCCCCCCNC(=O)[C@H](CO)n3cc(CCCSC)nn3)CC2)nc(N2CCN(C(=O)CCCCCCCCCCNC(=O)[C@H](CO)n3cc(CCCSC)nn3)CC2)n1 -37.9%
Cc1cc(C)c2[nH]c(=O)c(CN(CC3CCCO3)S(=O)(=O)c3ccc4c(c3)OCCO4)cc2c1 (configuration not stated) -37.6%
COCC(C)n1c(SCc2nc(N)nc(Nc3ccccc3C)n2)nc2ccccc2c1=O (configuration not stated) -43.7%
Cc1oc(-c2ccccc2F)nc1CSCC(=O)NCc1ccc2c(c1)OCO2 -33.5%
COc1cc(OC)c2c(=O)c(OC)c(-c3ccc(OC)c(OC)c3)oc2c1 -31.2%
Cc1ccc(C(=O)O/N=C(\N)Cc2ccc([N+](=O)[O-])cc2)c(Cl)c1 -47.3%
O=C(CN1CCCC1)NN=C(c1ccccc1)c1ccccc1 -43.6%
Cc1ccc(CNC(=O)c2cc3c(-c4ccc(Cl)cc4)nn(C)c3s2)o1 -48.1%
COc1ccc(/C=C2\NC(=S)N(CC3CCCO3)C2=O)c(OC)c1 (configuration not stated) -49.5%
CCOC(=O)C(=CNc1cccc(C)c1C)C(=O)OCC -48.4%
CN1CCN(S(=O)(=O)c2cccc(C(=O)Nc3sc4c(c3C(N)=O)CCCC4)c2)CC1 -39.4%
CC(C)CN(Cc1c(O)ccc2c(=O)c(-c3ccccc3)coc12)CC(C)C -44.9%

Activity change, inactive:
CC(C)(C)c1nn(-c2ccccc2)c2[nH]c(=O)c(CNc3ccc4c(c3)OCCO4)cc12 27.7%
Cc1ccc(C(=O)Nc2ccc(N3CCN(S(C)(=O)=O)CC3)cc2)cc1C -3.47%
COc1cc(C(CCN2CCCC2)c2c(OC)cc(OC)c3c(-c4ccccc4)cc(=O)oc23)cc(OC)c1OC (configuration not stated) 17.4%
Cc1cccn2c(=O)c3cc(C(=O)N4CCCCC4)sc3nc12 -1.55%
COc1ccc(S(=O)(=O)Nc2cccc3c2O[C@H](CN(C)Cc2ccc(Oc4ccccc4)cc2)[C@@H](C)CN([C@H](C)CO)C3=O)cc1 -29.2%
Cc1ncc(C[n+]2csc(CCOC(=O)C34CC5CC(CC(C5)C3)C4)c2C)c(N)n1 -1.4%
O=C(COc1ccc([N+](=O)[O-])cc1Cl)NCCc1ccccc1 3.71%
Cc1cccn2c(CNC3CCCc4ccccc43)c(C(=O)N3CCCCC3)nc12 (configuration not stated) -5.86%
COc1ccc(CN2CCCC(C(=O)c3ccc4c(c3)OCO4)C2)c(F)c1 (configuration not stated) 3.12%
COC(=O)Cn1cnc2c(nnn2-c2cccc(OC)c2)c1=O -20.6%
CCc1ccc(C(O)(CC)C(CN2CCOCC2)c2ccccc2)cc1 (configuration not stated) -19.7%
COc1ccc(C)cc1NC(=O)c1nnn(Cc2cc(C)ccc2C)c1N 48.9%
Cc1cc(NC(=O)CSc2nc(N)c(NC(=O)c3ccco3)c(=O)[nH]2)no1 -1.76%
O=[N+]([O-])c1nn(-c2ccc3c(c2)OCCO3)n(O)c1=NCCCO 8.19%
CN(C)c1nc(NCc2ccccc2)nc(N/N=C/c2ccc(Cl)cc2Cl)n1 39.3%
Oc1ccc(/C=N/NC(=S)Nc2cccnc2)c(O)c1O -9.98%
CCCOC(=O)C1=C(C)NC2=C(C(=O)CCC2)C1c1ccc(N(C)C)cc1 (configuration not stated) -17.5%
COc1ccc(C2/C=C\CN(C(=O)CC(C)(C)C)CC(=O)N2Cc2ccc(F)cc2)cc1 (configuration not stated) 6.79%
Cc1ccccc1OCC(=O)NCCCNC(=O)c1ccncc1 4.95%
